Test results published in PubChem BioAssay AID1963576 (National Center for Advancing Translational Sciences (NCATS), 2024).
Hit rate of the full screen: of about 46,000 compounds, about 60 (0.1%) were called active. About 3% were inconclusive and are not listed. Calls follow the shape of the dose curve; as a rule, active = well fitted inhibition curve with a large enough effect; inconclusive = small, poorly fitted or top-dose-only effect; inactive = no such curve, though single readings can be large or run the other way. The list shows a part of the results.

experiment: Primary qHTS assay for Inhibitors of ovarian cancer metastasis using an organotypic tumor microenvironment (TME) model.; also: nearly all actives have a fitted effect of over 65% in size;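 as to activity change, negative = inhibition: plate controls were DMSO wells for no effect and tomatine positive control wells for full effect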; conditions: SKOV3ip1-GFP adhesion/invasion on 3D omental model, fluorescence; series mostly up to 45.8 µM; activity change, negative = inhibition: at the top concentration
Outline: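 Adhesion/invasion was scored as fixed GFP-labeled SKOV3ip1 cell counts (488/509 nm), normalized to DMSO and tomatine controls. Cancer cells in serum-free medium, with four compound doses (0.36-46 umol/L), sat 2 hr at RT then 16 hr at 37 C on a 48 hr fibroblast/mesothelial/ECM culture.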

Structure (SMILES) | activity change, negative = inhibition | outcome
CCn1cc(C(=O)NCCc2ccc(OC)c(OC)c2)c(=O)c2cc(S(=O)(=O)N3CCCCCC3)ccc21 | inactive: 5.53% | –
CN(C)S(=O)(=O)c1ccc(C(=O)NCCSc2c(-c3ccccc3)[nH]c3ccccc23)cc1 | inactive: -9.43% | –
CC(=O)N1CCc2cc(S(=O)(=O)C(C)CC(=O)Nc3ccc(Br)c(C)c3)ccc21 (stereo not given) | – | inactive
COc1ccc2nc(N(Cc3cccnc3)C(=O)Cc3ccccc3)sc2c1 | – | inactive
COc1ccc(N(Cc2cc3cccc(C)c3[nH]c2=O)C(=O)c2cccc(Cl)c2)cc1 | inactive: 14.4% | –
Cc1cccc(-n2c(CNC(=O)c3cccc(F)c3)nnc2SCC(=O)Nc2ccccc2F)c1 | – | inactive
CC1CCN(CC2CCN(C(=O)Nc3ccc(Br)cc3F)CC2)CC1 | inactive: 2.2% | –
O=C(C1CCN(S(=O)(=O)Cc2ccccc2)CC1)N1CCN(c2cccc(C(F)(F)F)c2)CC1 | inactive: 4.21% | –
COc1ccccc1CNC(=O)CN1C(=O)COc2ccc(S(=O)(=O)NC3CCCC3)cc21 | inactive: 6.66% | –
COc1ccc(NC(=O)C2=C(C)Nc3ncnn3C2c2cccn2C)cc1 (stereo not given) | – | inactive
Fc1cccc(-c2nnn3c2nc(NC2CCCCC2)c2ccccc23)c1 | – | inactive
CC(=O)Nc1ccc(S(=O)(=O)NC2=NCN(CCO)CN2)cc1 | – | inactive
COC(=O)c1ccccc1NC(=O)c1sc2nc(C)cc(C)c2c1NC(=O)c1ccccc1OC | inactive: 4.61% | –
CCOCCCN1C(=O)c2ccccc2CC1(C)C(=O)NC1CCCCC1 (stereo not given) | inactive: -5.42% | –
Cc1noc(C)c1S(=O)(=O)N(CC(=O)NCCc1ccccc1)c1ccc(C(C)C)cc1 | inactive: -14.9% | –
CCOC(=O)c1c(NC(=O)c2ccc(S(=O)(=O)N(C)C3CCCCC3)cc2)sc2c1CCN(C(C)C)C2 | inactive: -0.597% | –
Cc1ccc(-c2cn3c(n2)sc2cc(C(=O)NCCC4=CCCCC4)ccc23)cc1 | inactive: 2.68% | –
COc1ccc(CNC(=O)C2CCC(CNS(=O)(=O)c3ccc4c(c3)CCCC(=O)N4)CC2)cc1 (stereo not given) | – | inactive
COc1ccc(-c2nc(S(=O)(=O)c3ccc(Cl)cc3)c(NCc3ccccc3)o2)cc1 | inactive: 7.17% | –
COc1ccc(/C=C/C(=O)Nc2nc(-c3cccs3)ns2)cc1 | – | inactive

Structure (SMILES) | activity change, negative = inhibition | outcome
COc1ccc(CNC(=O)CN2C(=O)CSc3ccc(S(=O)(=O)N4CCC(C)CC4)cc32)cc1 | inactive: 6.64% | –
Cc1ccc(CCNc2ncnc3onc(-c4ccc(Cl)cc4)c23)cc1 | – | inactive
CC1CCN(S(=O)(=O)c2nnc(NC(=O)c3cccc(Cl)c3)s2)CC1 | inactive: 0.329% | –
COc1ccc(NC(=O)CSc2nc3c(oc4ccccc43)c(=O)n2Cc2ccco2)cc1Cl | – | inactive
Cc1csc2nc(COc3cccc(NC(=O)c4ccccc4F)c3)cc(=O)n12 | inactive: -9.85% | –
CCN(CC)CCCNc1ncnc2c1cnn2-c1ccc(C)c(C)c1 | inactive: 14.6% | –
Cc1nn(CC(=O)N2CCN(c3ccc(Cl)cc3)CC2)c(=O)c2cccn12 | inactive: -4.81% | –
COc1ccc(OCC(O)Cn2c(NCCO)nc3c2c(=O)n(C)c(=O)n3C)cc1 (stereo not given) | inactive: -4.13% | –
CCOC(=O)CSc1nc2c(sc3ccccc32)c(=O)n1CCO | inactive: 0.925% | –
COc1ccccc1CNC(=O)c1cn(C)c2ccc(S(=O)(=O)N(C)C3CCCCC3)cc2c1=O | – | inactive
CCOc1ccc(NS(=O)(=O)c2ccc3c(c2)CCCN3C(=O)C2CCC2)cc1 | inactive: 3.09% | –
Cc1ccc(NC(=O)CSc2cn(CC(=O)N3CCCC3)c3ccccc23)cc1Cl | inactive: -1.62% | –
CCOc1ccc(NC(=O)c2c(NC(=O)Cc3ccccc3)sc3c2CCCCC3)cc1 | – | inactive
O=C(CSC1=Nc2ccccc2N=C(c2ccc(F)cc2)C1)Nc1ccccc1 | – | inactive
Cc1ccc(-n2c(=O)c3c(c4cc(C)ccc4n3C)n(CC(=O)N3CCCC3)c2=O)cc1 | inactive: -5.67% | –
Cc1ccc2c(=O)cc(C(=O)Nc3ccc(S(=O)(=O)Nc4ncccn4)cc3)oc2c1C | inactive: -1.44% | –
Cc1cc(C)cc(NC(=O)Cn2cc(C(=O)C3CCCCC3)c3ccccc32)c1 | inactive: 5.7% | –
O=C(CSc1nc2c([nH]c3ccccc32)c(=O)n1-c1ccc(Cl)cc1)c1ccccc1 | inactive: -2.03% | –
Cc1ccc2nc(COc3ccccc3NC(=O)c3ccc(F)cc3)cc(=O)n2c1 | inactive: 6.31% | –
COc1ccc(NCc2cccn2-c2nnc(N3CCCCC3)s2)cc1OC | inactive: -2.63% | –

Structure (SMILES) | activity change, negative = inhibition | outcome
Cc1cc(C)c(NC(=O)C2CCN(c3nn4c(=O)cc(C)nc4s3)CC2)c(C)c1 | inactive: 13.9% | –
Cc1ccc(NC(=O)c2cc(S(=O)(=O)NCCc3ccc(Cl)cc3)ccc2F)cc1 | – | inactive
CN1CCc2c(sc3c2C(=O)NC(c2ccc(C(C)(C)C)cc2)N3)C1 (stereo not given) | inactive: -2.43% | –
O=C(Nc1cnc(N2CCN(c3ccccc3)CC2)c(C(=O)O)c1)c1cccs1 | inactive: 8.32% | –
CC1CCN(S(=O)(=O)c2ccc3c(ccc(=O)n3CC(=O)Nc3cccc(F)c3)c2)CC1 | – | inactive
Cc1cccc(-c2noc(-c3ccc(N4CCOCC4)c([N+](=O)[O-])c3)n2)c1 | inactive: 6% | –
Cc1ccc(NC(=O)Cn2c(=O)nc(-c3ccccc3)c3ccccc32)cc1F | – | inactive
COc1ccc(Cn2c(SCC(=O)N(C)Cc3ccccc3)nc3ccccc32)cc1 | inactive: -3.3% | –
CC(C)(C)C1CCc2oc3ccc(NS(=O)(=O)c4ccc(C(=O)O)cc4)cc3c2C1 (stereo not given) | inactive: -0.134% | –
CC1=C(C(=O)N2CCN(c3cccc(Cl)c3)CC2)C2(CCCCC2)OC1=O | inactive: 6.71% | –
CCOC(=O)C1CCN(c2nc3c(S(=O)(=O)c4ccc(C)c(C)c4)nnn3c3ccc(Cl)cc23)CC1 | inactive: 1.27% | –
COc1ccc(C2N=C(N)Nc3nc4ccccc4n32)cc1 (stereo not given) | inactive: -8.1% | –
CC1CCCCN1C(=O)c1cc(-c2ccc(Br)cc2)on1 (stereo not given) | inactive: -5.89% | –
Cc1ccc(OCc2nc(-c3ccc(C(=O)NCc4ccc(OC(C)C)cc4)cc3)oc2C)cc1 | inactive: -10.9% | –
Cc1cccn2c(=O)c(C(=O)NC(C)c3ccccc3)cnc12 (stereo not given) | inactive: -0.884% | –
CCN(CC)S(=O)(=O)c1ccc2nc(NC(=O)c3cncc(Br)c3)sc2c1 | inactive: -26.5% | –
CCN(C(=O)c1cc2c(=O)oc3ccc(C)cc3c2s1)c1ccccc1C | inactive: 8.04% | –
Cc1cc(C)c(NC(=O)C(C)n2nnc3sc4c(c3c2=O)CCCC4)c(C)c1 (stereo not given) | inactive: 2.39% | –
Cc1ccc(C)c(CN2C(=O)c3ccccc3S(=O)(=O)c3ccc(C(=O)NCCC4=CCCCC4)cc32)c1 | – | inactive
COc1ccc(Nc2oc(-c3ccc(COc4ccccc4C)o3)nc2C#N)cc1 | inactive: 3.35% | –
